# The supplement of paper PMC7826260
# Some of the results follow. One pool of 16,384 single-stranded DNAs met each Rep nickase domain in vitro (1 h at 37 °C, 3 µM enzyme); the outer parts of the 90-letter strands are left off. Numbers give uncut DNA relative to the enzyme-free pool, as log2; strong cutting gives strongly negative numbers. There is no active / inactive call. Because reads are shares of a total, they shift together; where an enzyme cuts many sequences, the uncut ones exceed 0.
# System: T1, Rep nickase domain of tomato golden mosaic virus
# T1 sequence (protein, residues 1-124, tag omitted): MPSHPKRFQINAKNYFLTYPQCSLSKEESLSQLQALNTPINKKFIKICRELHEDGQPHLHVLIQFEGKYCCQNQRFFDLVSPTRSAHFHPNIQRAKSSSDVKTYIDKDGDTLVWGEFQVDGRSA
# Experiment: uncleaved DNA left, log2 of reads against the no-enzyme library (log2 ratio); higher = less cleavage (more negative = more Rep cleavage of the k-mer); sequences stand for … in CTCGTCCG…ACCGGAGA
# Description: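 A pool of 90-nt single-stranded DNAs with seven random bases just before the constant AC of the nick site (name = the seven bases) was cut by 3 µM recombinant His6-SUMO-tagged Rep nickase domain (300 nM DNA, 50 mM HEPES pH 8.0, 50 mM NaCl, 1 mM MnCl2, 1 h, 37 °C, three replicates). Uncut DNA was amplified and sequenced.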
row,Sequence,uncleaved DNA left (log2)
1,TCATTAC,-0.212
2,ATTACCC,-0.152
3,TCAAGTG,0.00681
4,TGAATTG,-0.156
5,GTGCAGC,-0.0365
6,AGGTGTC,-0.0238
7,CGCTAGG,0.146
8,TTTGTCG,-0.268
9,CCTCATA,0.0239
10,CTGTTGT,-0.385
11,CCAGTAG,0.113
12,AAGATGC,0.0654
13,GAACAAA,-0.00348
14,TTGCCCG,-0.0326
15,TTCAAAA,0.134
16,CGCGACG,0.107
17,TGCAAGG,0.162
18,ATGCAAC,-0.115
19,CAAAGTG,0.0465
20,TTTTTAG,-0.105

row,Sequence,uncleaved DNA left (log2)
1,TGCTTCA,-0.0209
2,CTTTTTG,-0.0884
3,CACGCAC,-0.035
4,AGACACT,-0.0224
5,TATGGAC,0.115
6,GCGCTAG,0.0489
7,CAATTAT,-4.01
8,AGGGTCG,0.0247
9,TTAGAGA,-0.00935
10,AAGGACC,0.0564
11,GGTACGA,0.0683
12,AGGACCA,0.0752
13,GTATGGC,0.079
14,TTCAGAC,-0.0274
15,GGCCCTA,-0.0186
16,CAGACCT,-0.0996
17,GTATAAT,0.14
18,AGGCCCA,0.0603
19,AGTATAC,0.0649
20,AAGACCA,-0.0566
